# In the supplement of paper PMC3334620:
# Whole data set: some 33,000 sequences, median “E-score (-0.5 to 0.5)” near -0.032, cut for the highest 2% near 0.36. The list shows a part of the results.
# Target: T1, Sko1 (UniProt Q02100)
# T1 sequence: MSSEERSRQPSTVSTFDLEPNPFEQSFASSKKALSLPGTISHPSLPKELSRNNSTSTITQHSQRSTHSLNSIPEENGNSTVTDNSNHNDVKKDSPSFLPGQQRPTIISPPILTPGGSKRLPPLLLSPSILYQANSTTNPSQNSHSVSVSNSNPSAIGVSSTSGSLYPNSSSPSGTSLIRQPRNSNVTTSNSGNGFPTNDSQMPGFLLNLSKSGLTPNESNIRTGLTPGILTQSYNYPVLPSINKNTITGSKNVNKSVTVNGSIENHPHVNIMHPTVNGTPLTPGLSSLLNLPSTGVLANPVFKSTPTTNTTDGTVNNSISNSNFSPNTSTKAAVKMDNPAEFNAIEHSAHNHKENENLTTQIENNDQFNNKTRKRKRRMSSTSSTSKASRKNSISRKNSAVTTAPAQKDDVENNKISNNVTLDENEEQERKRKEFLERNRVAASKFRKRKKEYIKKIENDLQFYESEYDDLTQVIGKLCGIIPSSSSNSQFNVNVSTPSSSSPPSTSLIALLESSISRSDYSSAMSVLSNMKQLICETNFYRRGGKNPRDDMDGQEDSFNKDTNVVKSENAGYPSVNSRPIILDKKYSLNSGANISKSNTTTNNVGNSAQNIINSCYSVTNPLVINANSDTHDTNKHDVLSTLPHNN
# Experiment: PBM E-score (8-mer binding enrichment) (E-score (-0.5 to 0.5)); higher = stronger / more preferred TF binding; most listed sequences are background and not binding sites
# Details: protein concentration: 200 nM; construct: GST-full length
# How it was run: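 PURExpress in vitro transcription/translation supplied GST-tagged yeast transcription factors, either full-length or DNA-binding domain. Applied at about 100-200 nM to universal all-10-mer Agilent arrays double-stranded by primer extension, the bound protein was detected with fluorescent anti-GST. E-scores, modified Wilcoxon-Mann-Whitney statistics, were given by the Universal PBM Analysis Suite to ungapped eight-base words pooled with their reverse complements after masliner normalisation.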
row,Sequence,PBM E-score
1,AAGTCAAC,0.0804
2,AATATCAC,0.2
3,AGTTCTCG,0.0316
4,ATACTTCA,0.0867
5,ACGGCTCT,-0.219
6,CAATAAGA,0.0999
7,ATCCCCGA,-0.292
8,ATCTTAAA,0.133
9,CCTTGCTA,-0.135
10,GAGCCCCC,-0.176
11,CAAGCGGA,-0.241
12,ATACAATG,0.0937
13,GGGGCACC,-0.225
14,AACATGGC,-0.0371
15,AATGGGAA,-0.181
16,AAGAAGAT,-0.00249
17,CGGTGAAA,0.0268
18,AAAGTAAA,0.0553
19,ATTGCATC,0.17
20,ATGAGTAA,0.0238
21,AGAAAGTG,-0.0888
22,CTTTTCCC,0.0673

row,Sequence,PBM E-score
1,ATCACAAC,0.205
2,GTACATAC,0.158
3,TCTGCAAA,0.043
4,AGCGCCGA,-0.209
5,AGAGCCTA,0.0998
6,GCAATAGA,-0.0144
7,AACACGTT,0.313
8,AAGAAATA,0.203
9,ATGCTATA,0.0431
10,CTCCTTTA,-0.193
11,GCTCCACA,-0.302
12,GAAAAAGC,-0.096
13,CAACTGAC,0.0945
14,ACGAAAAG,0.205
15,ATACTAAT,0.138
16,GCCATGCC,-0.22
17,GCATTGGA,-0.0991
18,GAAGGGTA,-0.12
19,CATAATAC,0.3
20,CAGATATG,0.0349
21,ATTCTAGC,-0.0448
22,TCAAAGAA,0.115

row,Sequence,PBM E-score
1,GTGGGTTA,-0.025
2,AGGCTCAC,-0.261
3,AGCATTTC,0.00434
4,CACTTAAA,0.107
5,CTTCGGAA,-0.083
6,ATACTTCG,0.109
7,GACCCCCC,-0.34
8,TAAAAGCA,0.0315
9,TCTTGGAA,0.00281
10,AGGCCACC,-0.164
11,AGAATAAT,0.11
12,GATCTTGA,0.112
13,AAGCGCCG,-0.14
14,CCAACAAC,-0.0332
15,GGACGAAA,-0.0622
16,AAAGTTGA,0.122
17,CCTCTACA,-0.16
18,ATGTTTGG,0.142
19,AATCCTCC,-0.215
20,ACGGCTGA,-0.00369
21,CCTTCTTC,-0.155
22,AGCGACAC,0.128

row,Sequence,PBM E-score
1,AACTGTCG,-0.042
2,AGCCGACA,-0.231
3,CTATCTCC,-0.0881
4,CGGTGATC,-0.231
5,TGAACGCA,0.16
6,AATCTTCG,0.12
7,ATAAGCAT,0.0305
8,CAGGTGGG,-0.174
9,CAAGATAC,0.0986
10,ATGGAAGA,-0.0282
11,ATGTATAA,0.245
12,AAGCGATG,-0.129
13,GGAGATTA,0.12
14,TGGGCCAA,-0.225
15,GAAAACAA,0.067
16,CATTACGC,0.409
17,ATGTGGGC,0.0399
18,CGATAGGA,-0.151
19,ACGGACGG,-0.103
20,CACAGCTA,-0.156
